Test results reported in PubChem BioAssay AID1347417 (National Center for Advancing Translational Sciences (NCATS), 2020).
Screen size: about 120,000 compounds; about 5,300 (4.4%) were called active. Inconclusive results, whose numbers are uncertain, are shown with a selection of clear calls. Calls follow the shape of the dose curve; as a rule, active = well fitted inhibition curve with a large enough effect; inconclusive = small, poorly fitted or top-dose-only effect; inactive = no such curve, though single readings can be large or run the other way. Potencies of inconclusive entries are doubtful fits and often do not repeat.

test: qHTS Primary assay for Inhibitors of Plasmodium falciparum Dd2 growth in vitro; also: nearly all actives have a fitted effect of over 65% in size;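 as to activity, negative = inhibition: plate controls were DMSO vehicle for no effect and reference drug for full effect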; conditions: P. falciparum Dd2 growth, SYBR Green, 72 h; activity, negative = inhibition: at 28.9 µM (top of the series) unless noted; series mostly up to 28.9 µM
Procedure, shortened: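 Readout: SYBR Green fluorescence, 485 nm excitation, 535 nm emission, after ~16 h lysis at 37C. Before that, Dd2-infected red cells (2.5% hematocrit) grew 72 h with compound, 29 uM top final concentration.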
Potency is read from the fitted curve at half-maximal effect; tags tell the direction and shape of the fitted curve.

| Structure (SMILES) | Potency | activity, negative = inhibition | outcome |
| --- | --- | --- | --- |
| Cc1ccc(-c2nnc3ccc(NC4CCCCC4)nn23)nc1 | inconclusive: 12.6 µM [inhibitor, partial curve, poor fit] |  |  |
| COCCCNc1nc2c([S+](=O)([O-])c3cc(OC)ccc3OC)nnn2c2ccccc12 |  | inconclusive: -137% [inhibitor] |  |
| C=C(C)CNCC1(O)CCCN(Cc2cccc(F)c2F)C1=O (configuration not stated) | inconclusive: 17.8 µM [inhibitor, single point] |  |  |
| COc1ccc(N2C(=O)C3(CCCCC3)C2C(=O)N2CCN(c3ccccn3)CC2)cc1 (configuration not stated) | inconclusive: 12.6 µM [inhibitor, single point] |  |  |
| C[S+](=O)([O-])c1ccc(-c2nc(C(=O)N3CCN(c4ncccn4)CC3)n3ccncc23)cc1 | active: 11.2 µM |  |  |
| CN(C(=O)CSc1nc2ccc(NC(=O)COc3ccccc3)cc2s1)c1ccccc1 | inconclusive: 3.98 µM [inhibitor, single point] |  |  |
| O=C(NC[C@H]1O[C@H](Cc2cc(COc3ccccc3)on2)CC[C@@H]1O)C1CCC1 | inconclusive: 22.4 µM [inhibitor, single point] |  |  |
| CCCCC1CN(c2ccccc2OC)C(=O)CN1C(=O)c1cnn(C)c1 (configuration not stated) |  | inactive: -7.76% |  |
| CCOC(=O)c1c(NC(=O)c2cc(Cl)ccc2Cl)sc2c1CCCC2 |  |  | inactive |
| O=C(NCc1cccc(C(F)(F)F)c1)[C@H]1CN(Cc2ccccc2)C[C@H]1C(=O)O | inconclusive: 11.2 µM [inhibitor, single point] |  |  |
| O=C(C1CCOCC1)N1CCC(c2nc(C3CCOCC3)no2)C1 (configuration not stated) |  | inactive: 35.6% |  |
| CCC(C)NC(=O)c1sc2ncccc2c1-n1c(C)ccc1C (configuration not stated) | inconclusive: 11.2 µM [inhibitor, partial curve, poor fit] |  |  |
| COc1ccc(NC(=O)N2[C@H]3CC[C@@H]2c2cnc(-c4ccc(F)cc4)nc2C3)c(OC)c1 | inconclusive: 7.08 µM [inhibitor, partial curve, poor fit] |  |  |
| CCNC(=O)NC[C@H]1O[C@H](Cc2cc(-c3ccc(F)cc3)on2)CC[C@@H]1O | inconclusive: 14.1 µM [inhibitor, single point] |  |  |
| O=C(Nc1cccnc1)N1CC2ON=C(C(=O)N3CCCC3)C2C1 (configuration not stated) |  | inactive: 7.9% |  |
| Cc1ccc(-c2cc(-c3ccncc3)c3cncn3c2)cn1 |  | inactive: -7.28% [at 44.1 µM] |  |
| CCN(C(=O)CSc1nc2n[nH]c(C)c2c(=N)n1-c1cccc(OC)c1)c1cccc(C)c1 | inconclusive: 17.8 µM [inhibitor, single point] |  |  |
| O=C(NC1CCCC1)C1Cn2cccc2C(=O)N1Cc1cccnc1 (configuration not stated) | inconclusive: 11.2 µM [inhibitor, single point] |  |  |
| COC(=O)[C@@H]1Cc2c([nH]c3ccccc23)[C@H]2C[C@@H](NCCN3CCOCC3)C[C@@H](c3ccc(C(F)(F)F)cc3)N21 | active: 8.91 µM |  |  |
| CC(C)Cc1nc2ccc(NC(=O)CC[C@H]3NC(=O)c4ccccc4NC3=O)cc2[nH]1 |  |  | inactive |
| CN(C)c1nc(-c2ccncc2)nc2c1CCN(C(=O)c1cc(=O)[nH][nH]1)C2 | inconclusive: 10 µM [inhibitor, single point] |  |  |
| COc1ccc(C(=O)N2C[C@@H]3C[C@H](C2)c2c(NC(=O)CSC)ccc(=O)n2C3)cc1 | inconclusive: 3.55 µM [inhibitor, partial curve, poor fit] |  |  |
| COc1nccnc1NC1CCN(C(=O)Cc2ccccc2)CC1 | inconclusive: 1 µM [inhibitor, partial curve] |  |  |

| Structure (SMILES) | Potency | activity, negative = inhibition | outcome |
| --- | --- | --- | --- |
| Cc1ccccc1CNC(=O)Nc1ccc2c(c1)N(C)C(=O)c1ccccc1S2 | inconclusive: 17.8 µM [inhibitor, single point] |  |  |
| COc1ccc(C2CC(=O)N(Cc3ccccc3)c3c2c(C)nn3-c2nc(C)cc(C)n2)c(OC)c1 (configuration not stated) | inconclusive: 8.91 µM [inhibitor, partial curve] |  |  |
| CC1(C)[C@H]2CC[C@@H](CNC(=O)c3ccc(F)cc3)[C@@H]1C2 | active: 11.2 µM |  |  |
| O=C(c1ccccc1)N1CCCC2(C1)C(=NC1CCCCC1)NC(=O)N2c1cccnc1 (configuration not stated) | inconclusive: 3.55 µM [inhibitor, single point] |  |  |
| Cc1nn2c(c1-c1ccccc1Oc1ccccc1)N(CC1CCOCC1)CCC2 | active: 7.94 µM |  |  |
| CC(C)N[C@H]1C[C@@H](Cc2cc(CC3CCCCC3)on2)C1(C)C | inconclusive: 10 µM [inhibitor, partial curve, poor fit] |  |  |
| O=C(CCc1cnccn1)N1CCOC(CCCc2ccccc2)C1 (configuration not stated) |  | inactive: -4.94% |  |
| CCOc1ccc(-c2oc3cc(Cl)ccc3c(=O)c2O)cc1OC | inconclusive: 17.8 µM [inhibitor, single point] |  |  |
| O=C1CO[C@H]2CCN(CCCc3ccccc3)CC[C@@H]2N1Cc1ccccc1 | active: 3.98 µM |  |  |
| CC(C)NC(=O)N[C@H]1CCN2C(=O)c3cc(-c4ccc(F)cc4F)ccc3NC(=O)[C@H]12 | inconclusive: 31.6 µM [inhibitor, single point] |  |  |
| CCN(CC)c1cc(C)c2cc(NC(=O)c3ccc(F)cc3Cl)ccc2n1 |  |  | inactive |
| Cc1ccc(CNC(=O)Cn2cccc2-c2nc(-c3ccc4c(c3)OCO4)no2)cc1 |  | inactive: 12.8% |  |
| COc1ccc(C(=O)N2CCC3(CC2)N=C(c2ccc(C)cc2)NO3)cc1F | inconclusive: 17.8 µM [inhibitor, single point] |  |  |
| COCC1(CNCc2cccc(OC)c2)C[C@@H](O)[C@@H](O)C1 (some centres not stated) | inconclusive: 4.47 µM [inhibitor, partial curve, poor fit] |  |  |
| CCOc1ccccc1NC(c1nnc(-c2ccccc2)o1)c1ccc(F)cc1Cl (configuration not stated) | inconclusive: 11.2 µM [inhibitor, single point] |  |  |
| N#Cc1ccc(C(=O)N2CCCCC2c2nc(CCOCC3CCOCC3)no2)cc1 (configuration not stated) |  |  | inactive |
| COCC(=O)N1CC(C(=O)Nc2ccccn2)C2(CCOCC2)C1 (configuration not stated) |  | inactive: 15.4% |  |
| COc1ccc(C(=O)N2C[C@@H]3C[C@H](C2)c2ccc(NC(=O)CN(C)C)c(=O)n2C3)cc1 | inconclusive: 12.6 µM [inhibitor, partial curve, poor fit] |  |  |
| Cc1ccc(CN2CCN(C(=O)C3Cn4cccc4C(=O)N3C)CC2)cc1 (configuration not stated) |  |  | inactive |
| COc1cccc(C(=O)N2CCC(N3CC4CC(C3)[C@H]3CCCC(=O)N3C4)CC2)c1 (some centres not stated) |  | inactive: -5% |  |
| COc1ccc(-c2noc(C(=O)NC3CCC3)c2[C@H](C)O)cc1 |  | inactive: -7.66% [at 44.1 µM] |  |
| O=C1NCCOCCN(C(=O)Nc2ccccc2)[C@@H]2CCCC[C@H]12 |  | inactive: 40.6% |  |
| Cc1cn2nc(C(=O)N3CCC(NC(=O)c4cccc(C#N)c4)CC3)cc2c(=O)[nH]1 | active: 2.82 µM |  |  |

| Structure (SMILES) | Potency | activity, negative = inhibition | outcome |
| --- | --- | --- | --- |
| CCCNC(=O)NC[C@H]1O[C@@H]2C[C@@H](CC(=O)NCc3cnn(C)c3)O[C@@H]2[C@@H]1O |  | inactive: -20.6% [at 44.1 µM] |  |
| O=C1OCCN1C1CCN(Cc2ccc(C(F)(F)F)cc2)CC1 |  | inactive: 0.699% |  |
| Cc1cccc(C(=O)N2C(C(=O)NCc3ccco3)COC23CCN(C(=O)CC(C)(C)C)CC3)c1 (configuration not stated) |  |  | inactive |
| Cc1ccc(CN2CCCCCCNC(=O)CC2c2ccccc2)o1 (configuration not stated) | inconclusive: 11.2 µM [inhibitor, single point] |  |  |
| O=c1cc(-c2ccccc2)c2ccc3c(c2o1)CN(Cc1ccccc1)CO3 | active: 1 µM |  |  |
| O=C(Nc1cccc(F)c1)C1CCN(c2nc3ccccc3[nH]2)CC1 | inconclusive: 10 µM [inhibitor, single point] |  |  |
| Cc1nc2c3ccccc3nc(NNC(=O)CCC(=O)N3CCN(c4cccc(C(F)(F)F)c4)CC3)n2n1 | inconclusive: 17.8 µM [inhibitor, single point] |  |  |
| COc1ccc(NC(=O)[C@@H]2C[C@H](c3ccc(F)cc3)N(Cc3csc(C)n3)C2)cc1OC | inconclusive: 5.62 µM [inhibitor, partial curve, poor fit] |  |  |
| O=C(C1CCCC1)N1Cc2ccccc2CC2(CCN(Cc3cccnc3)C2)C1 (configuration not stated) | inconclusive: 5.01 µM [inhibitor, partial curve, poor fit] |  |  |
| O=C(C1CCC1)N1CCC(N2CC(OCC3CC3)C23CCCCC3)CC1 (configuration not stated) | inconclusive: 2 µM [inhibitor, partial curve] |  |  |
| O=C(CCC1CCN(S(=O)(=O)c2cccc(F)c2)CC1)NCCN1CCOCC1 |  | inactive: -24.2% |  |
| COCC(=O)N[C@@H]1CN(Cc2sccc2C)CC[C@@H]1c1n[nH]c(C)n1 | inconclusive: 17.8 µM [inhibitor, single point] |  |  |
| CC1Oc2ccc(NC(=O)c3cccs3)cc2CN(CCOc2ccccc2)C1=O (configuration not stated) | inconclusive: 3.98 µM [inhibitor, single point] |  |  |
| COc1ccc(CNc2ncnc3c2cnn3-c2ccc(C)c(C)c2)cc1 | inconclusive: 0.0794 µM [inhibitor, full curve] |  |  |
| COCCNc1ccc(-c2noc([C@@H]3CCCN3Cc3ccccc3F)n2)cn1 | inconclusive: 11.2 µM [inhibitor, partial curve, poor fit] |  |  |
| O=C1CC(c2ccccc2)N(C(=O)CNC(=O)c2nccc3ccccc23)CCCCCCN1 (configuration not stated) | active: 0.355 µM |  |  |
| CNC(=O)c1c(NC(=O)c2ccc(S(=O)(=O)N3CCCCC3C)cc2)sc2c1CCC2 (configuration not stated) |  |  | inactive |
| CCCCN(CCCNC(=O)c1c(C)oc2nc[nH]c(=O)c12)Cc1ccccc1 | inconclusive: 10 µM [inhibitor, single point] |  |  |
| CCCNC(=O)OC[C@H]1C[C@@H]2CCN1C[C@@H]2c1cc(-c2ccc(OC)c(OC)c2)nn1C | inconclusive: 8.91 µM [inhibitor, single point] |  |  |
| Cc1ccc(C(=O)N2CCCn3cc(-c4cccc(C#N)c4)nc32)cc1 | inconclusive: 0.316 µM [inhibitor, full curve] |  |  |
| COc1ccc(NC(=O)C2Cn3cccc3C(=O)N2)c(OC)c1 (configuration not stated) | inconclusive: 11.2 µM [inhibitor, single point] |  |  |
